This data set is described as follows: Pretoxicity study in uninfected mice. The following applies: cumulative dose of 8 mg/kg (i.p.).

These results are taken from publication PMC12406258, “Uncovering the Unusual Inhibition Mechanism of a Trypanosome Alternative Oxidase Inhibitor Displaying Broad-Spectrum Activity against African Animal Trypanosomes” (Journal of Medicinal Chemistry, 2025).

Consider `Cc1cc(O)ccc1C(=O)OCCCCCCCCCCCCCC[P+](c1ccccc1)(c1ccccc1)c1ccccn1.[Br-]` [Compound 1, {14-[(4-Hydroxy-2-methylbenzoyl)-oxy]-tetradecyl}-diphenyl(pyridin-2-yl)-Phosphonium Bromide], for which the “Toxicity to uninfected mice” value is “not toxic”.
